Test [1] has as its target purified recombinant M. tuberculosis MurF synthetase (Mycobacterium tuberculosis H37Rv) (UniProt P9WJL1). As to the kind of experiment: SEC; both purified. (In general: SEC sorts molecules by how far they enter the pores of the column.)
Test [2] deals with purified recombinant M. tuberculosis MurE synthetase (Mycobacterium tuberculosis) (UniProt P9WJL3). Kind of test: SEC; both purified.

These are yes or no findings as the source states them, for the method shown.

B1: purified recombinant M. tuberculosis MurF synthetase (enzyme, UniProt P9WJL1 1-510)
chain: MIELTVAQIAEIVGGAVADISPQDAAHRRVTGTVEFDSRAIGPGGLFLALPGARADGHDHAASAVAAGAAVVLAARPVGVPAIVVPPVAAPNVLAGVLEHDNDGSGAAVLAALAKLATAVAAQLVAGGLTIIGITGSSGKTSTKDLMAAVLAPLGEVVAPPGSFNNELGHPWTVLRATRRTDYLILEMAARHHGNIAALAEIAPPSIGVVLNVGTAHLGEFGSREVIAQTKAELPQAVPHSGAVVLNADDPAVAAMAKLTAARVVRVSRDNTGDVWAGPVSLDELARPRFTLHAHDAQAEVRLGVCGDHQVTNALCAAAVALECGASVEQVAAALTAAPPVSRHRMQVTTRGDGVTVIDDAYNANPDSMRAGLQALAWIAHQPEATRRSWAVLGEMAELGEDAIAEHDRIGRLAVRLDVSRLVVVGTGRSISAMHHGAVLEGAWGSGEATADHGADRTAVNVADGDAALALLRAELRPGDVVLVKASNAAGLGAVADALVADDTCGSVRP
As for B1, the binding entry in test [1] was “no binding”.

B2: purified recombinant M. tuberculosis MurE synthetase (enzyme, UniProt P9WJL3 1-535)
chain: MSSLARGISRRRTEVATQVEAAPTGLRPNAVVGVRLAALADQVGAALAEGPAQRAVTEDRTVTGVTLRAQDVSPGDLFAALTGSTTHGARHVGDAIARGAVAVLTDPAGVAEIAGRAAVPVLVHPAPRGVLGGLAATVYGHPSERLTVIGITGTSGKTTTTYLVEAGLRAAGRVAGLIGTIGIRVGGADLPSALTTPEAPTLQAMLAAMVERGVDTVVMEVSSHALALGRVDGTRFAVGAFTNLSRDHLDFHPSMADYFEAKASLFDPDSALRARTAVVCIDDDAGRAMAARAADAITVSAADRPAHWRATDVAPTDAGGQQFTAIDPAGVGHHIGIRLPGRYNVANCLVALAILDTVGVSPEQAVPGLREIRVPGRLEQIDRGQGFLALVDYAHKPEALRSVLTTLAHPDRRLAVVFGAGGDRDPGKRAPMGRIAAQLADLVVVTDDNPRDEDPTAIRREILAGAAEVGGDAQVVEIADRRDAIRHAVAWARPGDVVLIAGKGHETGQRGGGRVRPFDDRVELAAALEALERRA
Regarding B2, in test [2], the binding entry is listed as “no binding”.
